According to the RNAGym collection of RNA variant scans (doi:10.1093/nar/gkz1192):
Read counts are not given, so values of variants with three or more changes are uncertain.

B1: CPEB3 Ribozyme (parent)
chain: UAACAGGGGGCCACAGCAGAAGCGUUCACGUCGCAGCCCCUGUCAGAUUCUGGUGAAUCUGCGAAUUCUGCUGUAUAUCUC

Variants of: B1
Assay: self-cleavage, relative activity (ratio to wild type); higher = more cleavage; in vitro, sequencing
Method in brief: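 Libraries of CPEB3 self-cleaving ribozyme mutants came from rounds of error-prone PCR and carried barcodes, which DNA sequencing matched to variants. In vitro transcription used T7 RNA polymerase at 37°C for 5 hours, with a further 15 min in DNase I before EDTA stopped the reaction; the ribozymes cleaved during both steps. The RNA was reverse transcribed with template switching and sequenced on Illumina. Relative activity is the cleaved/total read fraction of a variant divided by that of the unmutated ribozyme, averaged over three batches with at least 5 reads.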
GAACAGGGGACCACAGCAGAAGCGUUCACGUCGCAGCCCCUGUCAGGUUCAGGUGAAUCUGCGAAUUCUGCUGUAUAUCUC [U1G G10A A47G U51A] gave a self-cleavage of 0.31. In the case of CAACAGGGGGCCACAGCAGAAGCGUUCACGUCGCAGCCCCUGUCAGAUUCUGGUGAAUCUGCGAAUUCUGCAGCAUAUCUC [U1C U72A U74C], the self-cleavage is reported as 1.3. With GAACAGGGGGCCACAGCAGAAGCGUUCACGUCGCAGCCCCUGUCAGAUUCUGGUGAAUCUGCGAGUUCUGCUGUAUAUCGC [U1G A65G U80G] the self-cleavage was 0.56. For CAACAGGGGGCCACAGCAGAAGCGUUCACGUCGCAGCCCCGGUCAGAUUCUGGUGAAUCUGCGAAUUCUCCUGUAUAUCUC [U1C U41G G70C], the self-cleavage was 0.06. GAACAGGGGGCCACAGCUGAAGCGUUCACGUCGCAGCCCCUAUCAGAUUCUGGUGAAUCUGCGAAUUCAGCUGUAUAUCUC [U1G A18U G42A U69A] gave a self-cleavage of 0.31. In the case of CAACAGGGGGCCACAGCAGAAGCGUUCACGUCGCAGCCCCUGUCAGACUCUGGUGAAUCUGCGAAUUCUGUUGUAUAUCUC [U1C U48C C71U], the self-cleavage is reported as 0.2. CAACAGGGGGCCACAGCAGAAGCGUUCACGUCGCAGCCCCUGUCAGAUUCUGGGGAAACUGCGGAUUCUGCUGUAUAUCUC [U1C U54G U58A A64G] showed a self-cleavage of 0.17. In the case of GAACAGGGGGCCACAGCAGAAGCGUUCACGUCGCUGCCCCUGUCAGAUUCUGGUGAAUCUGCGAAUUCUGCAGUAUAUCUC [U1G A35U U72A], the self-cleavage is reported as 0.15. For CAACAGGGGGCCACAGCAGAAGCGUUCACGUCGCAGCCCCUGUCAGAUUCUGGAGAAUCUGCGAAUUCUACUGUAUAUCUC [U1C U54A G70A], the self-cleavage was 0.38. For GAACAGGGGGCCACUGCAGAAGCGUUCACGUCGCAGCCCCUGCAAGAUUCUGGUGAAUCUGCGAAUUCUGCUGUAUAUCUC [U1G A15U U43C C44A], the self-cleavage was 0.37. Work on GAACAGGGGGCCACUGCAGAAGCGUUCACGUCGCAGCCCCUGUCGGAUUCUGGUGAAUCUGCGAAUUCUGCUGUAUAUCUC [U1G A15U A45G] yielded a self-cleavage of 0.43. Work on CAACAGGGGGCCACAGCAGAAGCGUUCACGUCGCAGCCCCUGUCAGAUUCUGGCGAAUCUGCGAAUUCUGCAGUAUGUCUC [U1C U54C U72A A77G] yielded a self-cleavage of 0.84. Work on CAACAGGGGGCCACAGCAGAAGCGUUCACGUCGCAGCCCCUGUCAGAUCCUGGUGAAUCUGCGAAUUCUGCUGUGUGUCUC [U1C U49C A75G A77G] yielded a self-cleavage of 0.07. Variant CAACAGGGGGCCACAGCAGAAGCGUUCACGUCGCAGCCCCUGUCAGAUCCUGGUGAAUCUGCGAAAUCUGCUGUAUAUCUC [U1C U49C U66A] has a self-cleavage of 0.27. With CAACAGGGGGCCACAGCAGAAGCGUUCACGUCGCAGCCCCUGUCAGACCCUGGUGAAUCUGCGAAUUCUGCUGUAUAUCUC [U1C U48C U49C] the self-cleavage was 0.12. Variant GAACGGGGGGCCACAGCAGAAGCGUUCACGUCGCGGCCCCUGUCAGAUUCUGGUGAUCCUGCGUAUUCUGCUGCAUAUCUC [U1G A5G A35G A57U U58C A64U U74C] has a self-cleavage of 0.22. GAACGGGGGGCGACAGCAGAAGCGUUCACGUCGCAGCCACUGUCUGAUUCUGGUGAAUCCGCGAAUUCUGCUGUAUAACUC [U1G A5G C12G C39A A45U U60C U78A] showed a self-cleavage of 0.05. Variant GGACAGGGGGCCACAGCUGAAGUGUUCACGUCGCAGCCCCUGUCAGACUCUGGUGAAUCUGCGAAUUCUGCUGUAUACCUC [U1G A2G A18U C23U U48C U78C] has a self-cleavage of 0.05. With UCACGGGGAGCCACAGCAGAGGCGUCCCCGUCGCAGCCCCUGUCAGAUUCUGGUGAAUCUGCGAAUUCUGCUGUAUAUCUC [A2C A5G G9A A21G U26C A28C] the self-cleavage was 0.05. GAACAGGGGGCCACAGCAGAAGCGCCCACAACGCAGCCCCUGUCAGAUUCUGGUGAAUCCGCGAAUUCUGCUGUAUAUCUC [U1G U25C U26C G30A U31A U60C] showed a self-cleavage of 0.48. For GAACAGGGGGCCGCGGCAGAAGCGUCCACGUCGCAGCCCCUGUCAGAUUCUGGUGAAUCUGCGAAUUCCACUGUAUAUCUC [U1G A13G A15G U26C U69C G70A], the self-cleavage was 0.04. For GAACAGGGGGCCAUAGCAGAAGCGUUCACGUCGCGGCCCCUGUCAGAUUCUGGUGAACCUGCGUAUUCUCCUGCAUAUCUC [U1G C14U A35G U58C A64U G70C U74C], the self-cleavage was 0.5. Work on GAAUUGGGGGCCACAGCAGAAGCGUUCACGUCACAGCCCCUGUCAGAUUCUGGUGAAUCUGCGAAUCCUGCUGUAUAUCUC [U1G C4U A5U G33A U67C] yielded a self-cleavage of 0.29. CAACAGGGGGCCACAGCAGAAGCGUUCACGUCGCAGCCCCUGUCAGAUUCAGGUGUAUCUGCGAAUUCUGCUGUGUAUCUC [U1C U51A A56U A75G] showed a self-cleavage of 0.23. With CAACAGGGGGCCACAGCAGAAGCGUUCACGUCGCAGCCCCUGUCAGAUUCUGGUGAACCUGCGAAUUCCGCGGUAUAUCUC [U1C U58C U69C U72G] the self-cleavage was 0.42. For UCGCAGGGGGCCACAGCAUGAGCGAUCACGUCGCAGCCCCUGGCAGACUCUGGUGAAUCUGCGAAUUCUGCUGUAUAUCUC [A2C A3G G19U A20G U25A U43G U48C], the self-cleavage was 0.05. In the case of UCACGGGGGGCCGCAGCAGAAGCGCUCUCGUCGCAGCCCCAGUCAGAUUCUGGUGAAUCUGUGAAUUCUGCUGUAUAUCUC [A2C A5G A13G U25C A28U U41A C62U], the self-cleavage is reported as 0.06. Work on CAACAGGGGGCCACAGCAGAAGCGUUCACGUCGCAGCCCCUGUCAGAUACUGGUGAACCUGAGAAUUCUGCUGUAUAUCUC [U1C U49A U58C C62A] yielded a self-cleavage of 0.13. In the case of UCACCGGUGGCCACAGCAGAAACGUUCACGUCGCAGCCCCCGUCAGAUUCUGGUGAAUCUGCGAAUUCUGCUAUAUAUCUC [A2C A5C G8U G22A U41C G73A], the self-cleavage is reported as 0.04. With GAACAGGGGGCCACUGCAGAAGCGCUCACGUCGUAGCCCAUGUCAGAAUCUGGUGAAUCUGCGAAUUCUGCUGUGUAUCUC [U1G A15U U25C C34U C40A U48A A75G] the self-cleavage was 0.05. Variant CAACAGGGGGCCACAGCAGAAGCGUUCACGUCGCAGCCCCUGUCAGAUUCUGGCGAAUCUGCGAACUCUGCUGUAUGUCUC [U1C U54C U66C A77G] has a self-cleavage of 0.23. With GGACAGGGGGCCACAGCAGAAGCGUUCACGUCGCAACUCCCGUCAGAUCCUGGCGAAUCUGCGAAUUCUGCUGUAUAUCUC [U1G A2G G36A C38U U41C U49C U54C] the self-cleavage was 0.36. In the case of GAACAGGGCGCCACAGCAGAAGCGUUCACGCCGCUGCCCCUGUCAGAUUCUGGUGGAUCUGCGAAUUCUGCUGUAUAUCUC [U1G G9C U31C A35U A56G], the self-cleavage is reported as 0.06. In the case of GAGCAGGGGGCCACAGCGGAAGCGUUCACGUCGCAGCCCCUGUCAGAUUCUGGUGGAUCAGCGAAUUCUGCUGUAUAUCUC [U1G A3G A18G A56G U60A], the self-cleavage is reported as 0.43.
